The list shows a part of the results. At the low end of the ranking the order means little.

In this experiment the target is T1, GST-Rok (full length) (UniProt O34857).
T1 sequence: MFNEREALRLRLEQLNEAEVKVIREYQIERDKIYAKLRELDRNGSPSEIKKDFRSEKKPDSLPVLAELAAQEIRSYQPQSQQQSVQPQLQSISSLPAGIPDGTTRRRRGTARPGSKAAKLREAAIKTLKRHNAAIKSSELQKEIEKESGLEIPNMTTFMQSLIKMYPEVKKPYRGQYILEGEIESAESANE
Kind of experiment: protein binding microarray.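 Note: rank score from −0.5 (least bound) to 0.5 (best bound).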 To be noted: Rok is a gene silencer of Bacillus subtilis; high values mean tight binding; most listed sequences are background and not binding sites; double strand, one strand shown.
Consider ACCGACTA, for which the binding signal was -0.00372 E-score.

Sequence GAAATCTC came in with a binding signal of 0.209 E-score.

Regarding CCCGTACA, the binding signal worked out at 0.00638 E-score.

Regarding GAGGGAAA, the binding signal is -0.19 E-score.

As to CGGCTGTA, the binding signal is -0.0178 E-score.

Sequence ATGCCTTG showed a binding signal of -0.0353 E-score.

GCCAGCTA registered a binding signal of 0.0881 E-score.

GAGCTCAA showed a binding signal of -0.118 E-score.

For the sequence ACCACACT, the binding signal came out at 0.0549 E-score.

AGGATTCA: the binding signal was -0.117 E-score.

In turn, GGTACGCA registered a binding signal of -0.0737 E-score.

As for GGGCCGGA, the binding signal is -0.296 E-score.

AGCTCATA: the binding signal is 0.0657 E-score.

AAGACGAT had a binding signal of -0.216 E-score.

With GAAATGCA, the binding signal is -0.095 E-score.

Take CCATTTGC: the binding signal is -0.039 E-score.

AGATGGTC displayed a binding signal of 0.0272 E-score.

In turn, AGTCATCG had a binding signal of -0.11 E-score.

Consider CCGCACTC, for which the binding signal was -0.348 E-score.

With GCGCTGCA, the binding signal was -0.112 E-score.

Regarding GGAATCTA, the binding signal turned out to be 0.363 E-score.

GAGTGTGC displayed a binding signal of -0.131 E-score.

With AGTTCAAC, the binding signal worked out at 0.145 E-score.

Turning to GAAGGTGA, the binding signal was -0.267 E-score.

In the case of ACGCCGTG, the binding signal is -0.165 E-score.

For the sequence GTTTACCA, the binding signal is 0.0835 E-score.

Consider AGGATAAG, for which the binding signal was found to be 0.0375 E-score.

AAATTTCA yielded a binding signal of 0.146 E-score.

As for GGCGTCAA, the binding signal is -0.239 E-score.

AAGTGAGC had a binding signal of -0.093 E-score.

Take AGCAGGTA: the binding signal was determined as 0.00164 E-score.

Turning to GATTTCGC, the binding signal was 0.0887 E-score.

GCGAATGA returned a binding signal of -0.0886 E-score.

The sequence CACGCTTC registered a binding signal of -0.2 E-score.

GGTCTTTA gave a binding signal of -0.0477 E-score.

Take AACGCCGC: the binding signal is -0.28 E-score.

In turn, AGTATAGG gave a binding signal of 0.286 E-score.

In the case of GACTCATA, the binding signal is -0.016 E-score.

For the sequence AACGACCA, the binding signal was -0.0854 E-score.

As for ACGCTGCC, the binding signal is -0.207 E-score.

In turn, CGTTCGGC showed a binding signal of -0.125 E-score.

In turn, CAGTGCCC returned a binding signal of -0.22 E-score.

The sequence GTTTGTGA registered a binding signal of 0.148 E-score.

With CAGTTGGG, the binding signal was -0.00638 E-score.

The sequence ACACCAGT showed a binding signal of -0.173 E-score.

For the sequence AGCGACGA, the binding signal was 0.0576 E-score.

Take CCGAACGC: the binding signal is -0.192 E-score.

In turn, TGGCCAAA showed a binding signal of -0.145 E-score.

In turn, TACGAATA had a binding signal of 0.175 E-score.

As for AAAAACAG, the binding signal came to 0.235 E-score.

In turn, ATTTACCG returned a binding signal of 0.217 E-score.

For the sequence CGAACCAA, the binding signal was -0.145 E-score.

CAAAGGCG: the binding signal is -0.218 E-score.

The sequence GTGCGAGA gave a binding signal of -0.158 E-score.

For AAAACGGA, the binding signal was -0.0513 E-score.

Take ATCTACAG: the binding signal turned out to be 0.26 E-score.

CGATTGAC displayed a binding signal of 0.0142 E-score.

Take ACAAAGCT: the binding signal worked out at 0.156 E-score.

Consider GATACTAA, for which the binding signal is 0.307 E-score.

For the sequence CCAGTGGA, the binding signal is -0.187 E-score.

Sequence AGAGCTTA displayed a binding signal of -0.044 E-score.

With GCTGTCAC, the binding signal is -0.113 E-score.

Turning to ACAGCGTA, the binding signal was found to be 0.013 E-score.

Regarding CTTACGGA, the binding signal was -0.142 E-score.

As for CACTCAAC, the binding signal is -0.00301 E-score.

The sequence CGGACTGA returned a binding signal of -0.271 E-score.

GATTAAGC displayed a binding signal of 0.177 E-score.

Sequence CCTCCACA came in with a binding signal of -0.0125 E-score.

ACCCCGGC had a binding signal of -0.283 E-score.

Turning to GCATATTA, the binding signal was found to be 0.242 E-score.

Take AGAGCCGA: the binding signal is -0.249 E-score.

CGGAGTCA registered a binding signal of -0.0825 E-score.

In turn, AGCATCTA returned a binding signal of 0.174 E-score.

For AGGGTAGG, the binding signal is -0.0805 E-score.

CTCATAAC yielded a binding signal of -0.0629 E-score.

For the sequence ACATCCGG, the binding signal stood at 0.00562 E-score.

Take CGCCAGAC: the binding signal is -0.252 E-score.

Sequence ACCGTACG returned a binding signal of 0.144 E-score.

On to AACACTAG, for which the binding signal came out at 0.121 E-score.

GCAACTCC: the binding signal was -0.137 E-score.

For ATGCCGAG, the binding signal was -0.194 E-score.

The sequence ACGGTTTG had a binding signal of 0.151 E-score.

With CACGTCCA, the binding signal was -0.203 E-score.

TAATCGGA registered a binding signal of -0.0831 E-score.

Consider CAATGGGC, for which the binding signal is -0.332 E-score.

ATACGCCA showed a binding signal of 0.00399 E-score.

The sequence GAGAGCTC yielded a binding signal of -0.152 E-score.

Turning to AGACCAAA, the binding signal was -0.159 E-score.

In turn, CTTAACAC came in with a binding signal of -0.0119 E-score.

Sequence CTTTTTAC showed a binding signal of 0.274 E-score.

Regarding ACGATTAC, the binding signal was -0.0877 E-score.

Take CTGCAGTC: the binding signal was -0.0064 E-score.

In the case of ATTCGTAG, the binding signal stood at 0.139 E-score.

For CCGAGTTC, the binding signal is -0.0244 E-score.

In turn, CGTAAGCA came in with a binding signal of -0.118 E-score.

Sequence CGAGAGCG had a binding signal of -0.328 E-score.

For the sequence GGTCTTAA, the binding signal was -0.313 E-score.

As for CGTAACAC, the binding signal stood at 0.0468 E-score.

ACGGTCGC registered a binding signal of -0.194 E-score.

In the case of GATGACAC, the binding signal was -0.107 E-score.

AGTGAGGG came in with a binding signal of -0.334 E-score.

In turn, ATACTTGC displayed a binding signal of 0.153 E-score.

Sequence ACCCCCTC came in with a binding signal of -0.478 E-score.

As for AGCGGGCA, the binding signal was -0.128 E-score.

As to GCACCGTA, the binding signal is -0.23 E-score.

For the sequence GGCAGGAC, the binding signal is -0.344 E-score.

Take CGGGAGCC: the binding signal is -0.36 E-score.

The sequence ACATGGAT displayed a binding signal of 0.191 E-score.

Turning to AGACGAAG, the binding signal is 0.0239 E-score.

Regarding GGACCAGA, the binding signal was -0.000709 E-score.

Regarding GACATTCC, the binding signal was 0.108 E-score.

Turning to CAACTCGG, the binding signal was 0.109 E-score.

On to TCACCAGA, for which the binding signal was -0.019 E-score.

Take ACCCTTAA: the binding signal was found to be 0.00677 E-score.

The sequence GTCCAACA displayed a binding signal of -0.0189 E-score.

The sequence CCAGGCAC gave a binding signal of -0.402 E-score.

CAGTTCAC showed a binding signal of 0.0579 E-score.

In turn, AGAGGTTG gave a binding signal of -0.222 E-score.

The sequence CGCCACTC had a binding signal of -0.164 E-score.

On to GACATGAC, for which the binding signal is 0.184 E-score.

With AAAGAATT, the binding signal was determined as 0.00672 E-score.

In the case of AACCGAGT, the binding signal was -0.00949 E-score.

AACCCAAG registered a binding signal of -0.143 E-score.

CAAACGAC displayed a binding signal of 0.0667 E-score.

CTTTAGAA gave a binding signal of -0.00385 E-score.

For the sequence CTATGTAA, the binding signal stood at 0.185 E-score.

With GGGGCCAC, the binding signal is -0.401 E-score.

Regarding CCATAGTA, the binding signal amounted to 0.192 E-score.

Sequence AGCTACTA displayed a binding signal of 0.291 E-score.

ACAAGCCC: the binding signal is -0.188 E-score.

GAGACTTA had a binding signal of -0.112 E-score.

For the sequence AGGAGCGG, the binding signal is -0.204 E-score.

The sequence CTCCACAG gave a binding signal of -0.207 E-score.

Regarding GTATTGCA, the binding signal was 0.115 E-score.

In the case of ACCGCTTG, the binding signal is -0.07 E-score.

Sequence AGATAAAC showed a binding signal of 0.24 E-score.

CTGAAGTA returned a binding signal of 0.134 E-score.

Regarding CTCACTAA, the binding signal came to 0.154 E-score.

In the case of AGAGGGTC, the binding signal was -0.451 E-score.

Regarding CCTCGCGC, the binding signal is -0.26 E-score.

In the case of GAGGGGCA, the binding signal was -0.257 E-score.

ATCTCGAG had a binding signal of 0.114 E-score.

In turn, CAGCCGGC gave a binding signal of -0.32 E-score.

For the sequence CACTGCGA, the binding signal turned out to be 0.0493 E-score.

In turn, AACGCATT had a binding signal of 0.0537 E-score.

In the case of CCTTGACG, the binding signal is -0.29 E-score.

Turning to AGATTGCA, the binding signal worked out at 0.0509 E-score.

For CAGGAAGA, the binding signal is -0.0224 E-score.

Turning to AGCCGAGG, the binding signal is -0.176 E-score.

CCAGTCCA: the binding signal is -0.0798 E-score.

Sequence AATACGAA had a binding signal of 0.148 E-score.

In turn, ATACGACC had a binding signal of -0.0737 E-score.

Sequence CTAGTCTA showed a binding signal of 0.229 E-score.

With CGCCCTAC, the binding signal is -0.152 E-score.

Turning to GCACATCA, the binding signal stood at 0.0756 E-score.

On to CCGTGAAC, for which the binding signal is -0.00652 E-score.

ATCAGTAG: the binding signal came to 0.287 E-score.

With TGTGGGAA, the binding signal is -0.1 E-score.

Sequence AAGATAGT showed a binding signal of 0.244 E-score.

The sequence CAAACCAC returned a binding signal of -0.14 E-score.

As to GAGCATGC, the binding signal is -0.189 E-score.

As to TACTGGAA, the binding signal stood at 0.16 E-score.

On to GGACCGCA, for which the binding signal is -0.21 E-score.

In the case of CCACACGG, the binding signal is -0.0759 E-score.

Consider AATCGGCC, for which the binding signal is -0.0499 E-score.

The sequence AAGTACAC returned a binding signal of 0.25 E-score.

Sequence ACACACGG registered a binding signal of -0.383 E-score.

Consider AATAATTG, for which the binding signal is 0.266 E-score.

CTTAGTGC registered a binding signal of 0.0208 E-score.

Take CGAACCGC: the binding signal was -0.193 E-score.

As to GAGAAATC, the binding signal was 0.118 E-score.

ACATAGGA had a binding signal of 0.231 E-score.

(Values after publication PMC6212790.)
